About 540 (0.36%) of roughly 150,000 compounds showed an effect of 50% or more. This is one part of the list.
What follows are compounds tested on Plasmodium falciparum (assay: Primary screen in NF54 nanoGlo assay, in single point, at 2uM, 72h; a lower Z score goes with more inhibition). Conditions: timepoint 72 hour.
Assay type: functional, Erythrocyte

| SMILES | % Inhibition [%] | Z score |
| --- | --- | --- |
| CCS(=O)(=O)N1CCN(C2CCC(c3ccccc3)CC2)CC1 (stereo unspecified) | 9 | -1.03 |
| O=C(N[C@H]1CCOC12CCOCC2)c1ccc2c(c1)CCCC2=O | -5 | 0.63 |
| O=C1N[C@H]2CCC[C@@H]1CN(Cc1nc(-c3ccccc3)no1)C2 | -8 | 0.79 |
| COC(=O)CNC(=O)[C@@H](CC(C)C)NC(=O)[C@H]1CCCN1C(=O)OC(C)(C)C | -10 | 1.23 |
| COC(=O)C1CC(Oc2ccccc2F)CN1C(=O)c1ccccc1 (stereo unspecified) | -10 | 1.82 |
| COc1ccc(CCNC(=O)c2n[nH]c3c2CN(C(=O)Cc2ccc(Cl)c(Cl)c2)CC3)cc1OC | 11 | -1.34 |
| CCCc1nc(C)c(CNCc2cnc(NC[C@H]3CCCO3)nc2)s1 | -10 | 1.64 |
| CC(C)CC(=O)N1CCC[C@H](Oc2nc(C3CC3)nc3c2CCOCC3)C1 | -13 | 1.23 |
| Cc1n[nH]c(C)c1[C@H](C)NC(=O)Cc1ccc(O)c(F)c1 | -16 | 1.52 |
| Cc1c(Cl)ccc2c1NC(=O)C2(c1c[nH]c2ccccc12)c1c[nH]c2ccccc12 | -3 | 0.41 |
| O=C(NC1(C(=O)NC2CCCC2)CCCCC1)c1ccc2c(c1)OCO2 | -1 | 0.17 |
| COCC1(C(=O)NCCOCc2ccccc2)CCC1 | -3 | 0.6 |
| Cc1c(Cl)cccc1NC(=O)N[C@H]1CCN(Cc2noc(-c3ccccc3)n2)C1 | -6 | 0.87 |
| CC(=O)Nc1nc2ccc(NC(=O)c3cc(Cl)c4c(c3)OCCCO4)cc2s1 | -3 | 0.47 |
| C[C@H]1CCCCN1CCNC(=O)CCc1cn(C)nc1-c1ccc(F)cc1 | -10 | 1.32 |
| CC(C)N1CC[C@H](n2nc(C(C)(C)C)ccc2=O)C1=O | -2 | 0.33 |
| C[C@@H]1CN(Cc2cccc(-c3cccnc3)c2)CC(C(N)=O)O1 (stereo partly specified) | -11 | 0.97 |
| Cc1ccc(F)cc1NC(=O)c1cc(F)ccc1-n1ccnc1 | 0 | 0.03 |
| CN1CCN(Cc2nccn2CC(F)(F)F)c2ccccc21 | 12 | -1.37 |
| Cc1c(F)cccc1S(=O)(=O)N[C@@H](C)C(N)=O | 2 | -0.32 |
| CCOc1ccccc1NC(=O)N(CC)c1nc(-c2ccc(C3CCCCC3)cc2)cs1 | -5 | 0.89 |
| COc1nn(C)cc1CNC(=O)C1(c2ccccc2C)CCCCC1 | -1 | 0.22 |
| CO[C@@H](CS(=O)(=O)Nc1cc(O)c(Cl)cc1Cl)C(C)C | 5 | -0.98 |
